Source: patent US20230398182A1 (ACCELERON PHARMA, published 2023)
Read-outs that look alike come from different tables or passages of the source. Values belong to the binder of their own block, whether it stands above or below them.

What was measured:
[1] = target: T1, Human TGFβ1 (human, UniProt P01137 fragment); assay: cell-based or functional assay
[2] = target: T1, Human TGFβ1; assay: cell-based or functional assay; remark: listed apart in the source
[3] = target: T1, Human TGFβ1; assay: Biacore (surface plasmon resonance)
[4] = target: T1, Human TGFβ1; assay: cell-based or functional assay; remark: listed apart in the source

T1 sequence (P01137 279-390 limits assumed): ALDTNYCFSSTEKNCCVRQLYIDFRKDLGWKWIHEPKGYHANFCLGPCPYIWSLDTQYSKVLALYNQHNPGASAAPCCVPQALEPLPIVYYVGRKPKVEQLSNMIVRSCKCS

B3: hTβRII (G4S)4-hFc (Fc fusion)
chain: TIPPHVQKSDVEMEAQKDEIICPSCNRTAHPLRHINNDMIVTDNNGAVKFPQLCKFCDVRFSTCDNQKSCMSNCSITSICEKPQEVCVAVWRKNDENITLETVCHDPKLPYHDFILEDAASPKCIMKEKKKPGETFFMCSCSSDECNDNIIFSEEYNTSNPDTGGGGSGGGGSGGGGSGGG[human IgG1 Fc and a few adjoining residues left out]
notes: 69 lacks the C-terminal lysine; Expressed in CHO cells
IC50, inhibition of TGFβ1-induced pGL3(CAGA)12 luciferase reporter in A549 cells [4]: 0.07 nM

B4: hTβRII (G4S)3-hFc (Fc fusion)
chain: TIPPHVQKSDVEMEAQKDEIICPSCNRTAHPLRHINNDMIVTDNNGAVKFPQLCKFCDVRFSTCDNQKSCMSNCSITSICEKPQEVCVAVWRKNDENITLETVCHDPKLPYHDFILEDAASPKCIMKEKKKPGETFFMCSCSSDECNDNIIFSEEYNTSNPDTGGGGSGGGGSGGG[human IgG1 Fc and a few adjoining residues left out]
notes: 68 lacks the C-terminal lysine; Expressed in CHO cells
IC50, inhibition of TGFβ1-induced pGL3(CAGA)12 luciferase reporter in A549 cells [4]: 0.22 nM

B6: hTβRII (G4S)5-hFc (Fc fusion)
chain: TIPPHVQKSDVEMEAQKDEIICPSCNRTAHPLRHINNDMIVTDNNGAVKFPQLCKFCDVRFSTCDNQKSCMSNCSITSICEKPQEVCVAVWRKNDENITLETVCHDPKLPYHDFILEDAASPKCIMKEKKKPGETFFMCSCSSDECNDNIIFSEEYNTSNPDTGGGGSGGGGSGGGGSGGGGSGGG[human IgG1 Fc and a few adjoining residues left out]
notes: 75 lacks the C-terminal lysine; Expressed in CHO cells
IC50 (read off the curve), TGFβ1 (640pg/mL)-induced pGL3(CAGA)12 luciferase reporter in A549 cells [1]: ~3 ng/mL
IC50, inhibition of TGFβ1-induced pGL3(CAGA)12 luciferase reporter in A549 cells [2]: 0.03 nM
Kd [3]: 8.8 pM

Other lines, results leading:

IC50 (read off the curve), TGFβ1 (640pg/mL)-induced pGL3(CAGA)12 luciferase reporter in A549 cells [1]: ~2 ng/mL
IC50, inhibition of TGFβ1-induced pGL3(CAGA)12 luciferase reporter in A549 cells [2]: 0.02 nM
Kd [3]: 3.8 pM
B1: hTβRII (G4S)6-hFc (Fc fusion)
chain: TIPPHVQKSDVEMEAQKDEIICPSCNRTAHPLRHINNDMIVTDNNGAVKFPQLCKFCDVRFSTCDNQKSCMSNCSITSICEKPQEVCVAVWRKNDENITLETVCHDPKLPYHDFILEDAASPKCIMKEKKKPGETFFMCSCSSDECNDNIIFSEEYNTSNPDTGGGGSGGGGSGGGGSGGGGSGGGGSGGG[human IgG1 Fc and a few adjoining residues left out]
notes: 76 lacks the C-terminal lysine; Expressed in CHO cells

IC50, inhibition of TGFβ1-induced pGL3(CAGA)12 luciferase reporter in A549 cells [4]: 7.69 nM
B2: hTβRII-hFc (Fc fusion)
chain: TIPPHVQKSDVEMEAQKDEIICPSCNRTAHPLRHINNDMIVTDNNGAVKFPQLCKFCDVRFSTCDNQKSCMSNCSITSICEKPQEVCVAVWRKNDENITLETVCHDPKLPYHDFILEDAASPKCIMKEKKKPGETFFMCSCSSDECNDNIIFSEEYNTSNPDTG[human IgG1 Fc and a few adjoining residues left out]
notes: 88 lacks the C-terminal lysine; Expressed in CHO cells; also called TβRII-Fc fusion protein construct with TGGG linker

IC50, inhibition of TGFβ1-induced pGL3(CAGA)12 luciferase reporter in A549 cells [4]: 5.67 nM
B5: hTβRII extended hinge-hFc (Fc fusion)
chain: TIPPHVQKSDVEMEAQKDEIICPSCNRTAHPLRHINNDMIVTDNNGAVKFPQLCKFCDVRFSTCDNQKSCMSNCSITSICEKPQEVCVAVWRKNDENITLETVCHDPKLPYHDFILEDAASPKCIMKEKKKPGETFFMCSCSSDECNDNIIFSEEYNTSNPDTGGG[human IgG1 Fc left out]
notes: 71 lacks the C-terminal lysine; Expressed in CHO cells
